Here are results for 67 compounds from the supplement of paper PMC9135407.

The subject of this assay is primary human hepatic stellate cells (donor 1). Description: scaled lipid accumulation score (0 = DMSO-like, 1 = nortriptyline-like); higher = stronger HSC inactivation (lipid re-accumulation), active = hit call of the paper. The following applies: 48 h.
Where [1] appears, read: library stock concentration: 10 mM.
The mark [2] stands for this setting: library stock concentration: 1 mM.
Setting [3] is: library stock concentration: 3.33 mM.
[4] abbreviates: library stock concentration: 7.2 mM.
Where [5] appears, read: library stock concentration: 7.3 mM.

The structures appear in SMILES notation. Several values for one entry are separate records, joined by “and”; a condition that tells them apart may be missing. Equal values may be shown once. Where a name gives a salt, the structure may show the parent alone. About 620 (11%) of roughly 5,800 compounds showed activity.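 The calls were made as follows: active = score above a cut-off or among the top three wells of a plate; in these data no inactive exceeds 0.85.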 Only a part is listed here, and it is no random draw.

Regarding `CN1C[C@H](CNC(=O)OCc2ccccc2)C[C@@H]2c3cccc4c3c(cn4C)C[C@H]21` [Metergoline], the “scaled lipid accumulation score” value was active: 1.06.

On to `c1ccc(CCCN2CCN(CCOC(c3ccccc3)c3ccccc3)CC2)cc1`, for which the “scaled lipid accumulation score” value under setting [1] is inactive: ≤ -0.07 and inactive: 0.566.

With `Clc1cccc(SC2CCNCC2)n1` [Anpirtoline hydrochloride], the “scaled lipid accumulation score” value under setting [1] was inactive: 0.117.

Regarding `O=c1c2ccccc2[se]n1-c1ccccc1` [Ebselen], the “scaled lipid accumulation score” value is active: 0.867.

`COc1ccc(C(=O)c2c(C)n(CCN3CCOCC3)c3ccccc23)cc1` [Pravadoline]: the “scaled lipid accumulation score” value (library stock concentration: 5.3 mM) is inactive: ≤ -0.006.

`CCOC(=O)c1ncc2[nH]c3ccc(OCc4ccccc4)cc3c2c1COC`: the “scaled lipid accumulation score” value under setting [1] was inactive: ≤ -0.006.

For `CC(C)(N)Cc1ccccc1` [Phentermine], under “library stock concentration: 13.4 mM”, the “scaled lipid accumulation score” value was inactive: 0.061.

On to `NP(N)(=O)NC(=O)c1ccc(F)cc1`, for which the “scaled lipid accumulation score” value under setting [1] was inactive: ≤ 0.

For the compound `NP(N)(=O)NC(=O)c1ccc(F)cc1` [Flurofamide], the “scaled lipid accumulation score” value under setting [1] was inactive: ≤ 0.

With `C=C(C)[C@@H]1CCC(C)=C[C@H]1c1c(OC)cc(CCCCC)cc1OC` [Cannabidiol dimethyl ether], under setting [2], the “scaled lipid accumulation score” value is inactive: ≤ 0.

On to `CN1CCc2cc3c(cc2C1O)OCO3` (stereo unspecified) [Hydrastinine hydrochloride], for which the “scaled lipid accumulation score” value is inactive: ≤ 0.

For the compound `CN1C2CCC1CC(OC(c1ccccc1)c1ccc(Cl)cc1)C2.Cl` (stereo unspecified), the “scaled lipid accumulation score” value under setting [1] was active: 1.07.

Consider `NC(=NN=Cc1ccc(-c2cccc([N+](=O)[O-])c2)o1)N[N+](=O)[O-]` [ERK Inhibitor III], for which the “scaled lipid accumulation score” value under setting [3] is inactive: ≤ 0.

In the case of `O=c1c2ccccc2[se]n1-c1ccccc1`, the “scaled lipid accumulation score” value under setting [1] was active: 1.07.

Consider `CCCCCCCCCCCCCCCCSP(=O)([O-])OCC[N+](C)(C)C` [thio-Miltefosine], for which, under setting [2], the “scaled lipid accumulation score” value is inactive: ≤ 0.

For the compound `CCc1c(C(=O)C(N)=O)c2c(OCC(=O)O)cccc2n1Cc1ccccc1`, the “scaled lipid accumulation score” value by setting is: under setting [3], inactive: ≤ 0; under setting [1], inactive: ≤ 0.

For the compound `CCNCC(O)c1cccc(O)c1` (stereo unspecified) [Etilefrine hydrochloride], the “scaled lipid accumulation score” value is inactive: ≤ 0.

As to `CCCCCC(/C=C/C=O)OO` (stereo unspecified) [4-hydroperoxy 2-Nonenal], under setting [2], the “scaled lipid accumulation score” value was inactive: 0.019.

Turning to `Cc1sc2c(c1C)C(c1ccc(Cl)cc1)=N[C@@H](CC(=O)Nc1ccc(O)cc1)c1nnc(C)n1-2`, the “scaled lipid accumulation score” value is inactive: ≤ -0.009 under setting [3] and inactive: 0.002 under setting [1].

Turning to `CS(=O)(=O)O.Oc1ccc2c3c1O[C@H]1c4oc5ccccc5c4C[C@@]4(O)C(C2)N(CC2CC2)CC[C@]314` [Naltriben mesylate], under setting [1], the “scaled lipid accumulation score” value is active: 1.27.

With `Cc1o[nH]c(=O)c1CC(N)C(=O)O` (stereo unspecified) [(?)-AMPA hydrobromide], the “scaled lipid accumulation score” value under setting [1] is inactive: ≤ -0.07.

On to `CC[C@H]1CN2CCc3cc(OC)c(OC)cc3C2C[C@@H]1CC1NCCc2cc(OC)c(OC)cc21.Cl.Cl` (stereo partly specified) [Emetine], for which the “scaled lipid accumulation score” value (library stock concentration: 3.6 mM) was active: 1.37.

With `C[C@@H]1O[C@@H](O[C@@H]2C[C@@H](O)[C@]3(CO)[C@H]4[C@H](O)C[C@]5(C)[C@@H](C6=CC(=O)OC6)CC[C@]5(O)[C@@H]4CC[C@]3(O)C2)[C@H](O)[C@H](O)[C@H]1O` [Ouabain], the “scaled lipid accumulation score” value under setting [1] is active: 1.

With `COc1ccc(C(CN(C)C)C2(O)CCCCC2)cc1` (stereo unspecified), under setting [1], the “scaled lipid accumulation score” value was inactive: ≤ 0.

Turning to `COc1ccc(C(CN(C)C)C2(O)CCCCC2)cc1` (stereo unspecified) [Venlafaxine HCl], the “scaled lipid accumulation score” value under setting [4] was inactive: 0.007.

As to `COc1ccc(C(CN(C)C)C2(O)CCCCC2)cc1` (stereo unspecified) [Venlafaxine hydrochloride], the “scaled lipid accumulation score” value under setting [1] is inactive: 0.155.

Turning to `COc1ccc(C(CN(C)C)C2(O)CCCCC2)cc1` (stereo unspecified) [Venlafaxine], the “scaled lipid accumulation score” value reads like this: under setting [3], inactive: ≤ 0; under setting [4], inactive: 0.227; under setting [1], inactive: 0.127 and inactive: 0.164.

Regarding `O=C(O)CCC(CP(=O)(O)O)C(=O)O` (stereo unspecified) [PMPA (NAALADase inhibitor)], under setting [1], the “scaled lipid accumulation score” value was inactive: ≤ -0.006.

As to `CN1[C@H]2C[C@H](OC(=O)[C@H](CO)c3ccccc3)C[C@@H]1[C@@H](O)C2` [Anisodamine], the “scaled lipid accumulation score” value under setting [1] was inactive: 0.076.

In the case of `CN1[C@H]2C[C@H](OC(=O)[C@H](CO)c3ccccc3)C[C@@H]1[C@@H](O)C2`, under setting [1], the “scaled lipid accumulation score” value was inactive: ≤ 0.

Consider `CC(C)(C)OC(=O)c1ncn2c1[C@@H]1CCCN1C(=O)c1c(Br)cccc1-2` [Bretazenil], for which, under setting [1], the “scaled lipid accumulation score” value was inactive: 0.046.

`CN(C)C(=O)Oc1cccc([N+](C)(C)C)c1` [Neostigmine bromide]: the “scaled lipid accumulation score” value was inactive: ≤ 0. Moreover, for the setting “library stock concentration: 6.6 mM”, the “scaled lipid accumulation score” value was inactive: 0.003. The “scaled lipid accumulation score” value under setting [1] was inactive: ≤ 0 and inactive: ≤ -0.055.

`Cc1onc(O)c1C[C@H](N)C(=O)O`: under setting [1], the “scaled lipid accumulation score” value is inactive: ≤ 0.

On to `CNC(=O)Oc1ccc2c(c1)[C@]1(C)CCN(C)[C@@H]1N2C` [Eserine sulfate, physostigmine sulfate], for which the “scaled lipid accumulation score” value is inactive: ≤ 0.

For the compound `CNC(=O)Oc1ccc2c(c1)[C@]1(C)CCN(C)[C@@H]1N2C` [(-)-Physostigmine], the “scaled lipid accumulation score” value under setting [1] is inactive: ≤ -0.07.

With `CNC(=O)Oc1ccc2c(c1)[C@]1(C)CCN(C)[C@@H]1N2C` [Physostigmine sulfate], the “scaled lipid accumulation score” value under setting [5] was inactive: ≤ -0.006.

On to `CNC(=O)Oc1ccc2c(c1)[C@]1(C)CCN(C)[C@@H]1N2C` [Physostigmine salicylate], for which the “scaled lipid accumulation score” value is inactive: ≤ -0.001 (library stock concentration: 4.8 mM) and inactive: ≤ 0 under setting [1].

For the compound `CNC(=O)Oc1ccc2c(c1)[C@]1(C)CCN(C)[C@@H]1N2C` [Physostigmine], the “scaled lipid accumulation score” value under setting [1] is inactive: ≤ 0.

For `CCN(CC)CCOC(=O)C(O)(c1ccccc1)c1ccccc1`, under setting [1], the “scaled lipid accumulation score” value was inactive: ≤ 0.

`CN(C)C(=O)Oc1ccc[n+](C)c1` [Pyridostigmine bromide]: the “scaled lipid accumulation score” value was inactive: ≤ 0 (library stock concentration: 7.7 mM); inactive: ≤ 0 and inactive: ≤ -0.027 under setting [1].

`CN(C)C(=O)Oc1ccc[n+](C)c1` [Pyridostigmine Bromide]: the “scaled lipid accumulation score” value reads like this: under setting [3], inactive: ≤ 0; under setting [1], inactive: 0.164.

`CN(C)C(=O)Oc1ccc[n+](C)c1` [Mestinon]: the “scaled lipid accumulation score” value under setting [1] is inactive: ≤ 0.

Take `C[C@@H]1O[C@@H](O[C@@H]2C=C3CC[C@@H]4[C@H](CC[C@]5(C)[C@@H](c6ccc(=O)oc6)CC[C@]45O)[C@@]3(C)CC2)[C@H](O)[C@H](O)[C@H]1O` [Proscillaridin A]: the “scaled lipid accumulation score” value is inactive: 0.768.

Regarding `CN1CCN(c2nc3ccccc3nc2Cl)CC1`, the “scaled lipid accumulation score” value reads like this: under setting [3], inactive: ≤ 0; under setting [1], inactive: 0.211.

`C#CCN(C)[C@H](C)Cc1ccccc1` [Selegiline hydrochloride]: the “scaled lipid accumulation score” value is inactive: 0.133. Moreover, for the setting “library stock concentration: 8.9 mM”, the “scaled lipid accumulation score” value is inactive: ≤ 0.

On to `C#CCN(C)[C@H](C)Cc1ccccc1` [Benzeneethanamine, N,Alpha-dimethyl-N-2-propynyl-(R)- [CAS]], for which the “scaled lipid accumulation score” value under setting [1] is inactive: ≤ 0.

Consider `C#CCN(C)[C@H](C)Cc1ccccc1` [Selegiline], for which, where the note is “library stock concentration: 10.7 mM”, the “scaled lipid accumulation score” value was inactive: ≤ -0.006.

For `C[C@]12CC[C@@H](O)C[C@H]1CC[C@@H]1[C@@H]2CC[C@]2(C)C(=O)CC[C@@H]12` [3-alpha-Hydroxy-5-beta-androstan-17-one], the “scaled lipid accumulation score” value was inactive: ≤ 0.

`CC(N)c1cccc(Cl)c1Cl` (stereo unspecified): the “scaled lipid accumulation score” value under setting [1] is inactive: 0.208.

As to `N[C@H](C(=O)O)c1cc(O)no1` [(?)-Ibotenic acid], the “scaled lipid accumulation score” value under setting [1] was inactive: 0.002.

For `N[C@H](C(=O)O)c1cc(O)no1` [Ibotenic acid], under setting [1], the “scaled lipid accumulation score” value was inactive: ≤ 0.

In the case of `CCN1CC2(OC(=O)c3ccccc3NC(C)=O)CCC(OC)C34C1C(CC23)C1(O)CC(OC)C2CC4C1(O)C2OC` (stereo unspecified) [Lappaconite HBr], the “scaled lipid accumulation score” value is, setting by setting: under setting [3], inactive: ≤ 0; under setting [1], inactive: ≤ 0.

Consider `CC(C)NCC(O)c1ccccc1Cl` (stereo unspecified) [Clorprenaline HCl], for which the “scaled lipid accumulation score” value is, setting by setting: under setting [3], inactive: ≤ 0; under setting [1], inactive: ≤ -0.001.

With `Br.Br.N=C(NCc1ccc(Cl)cc1)SCCCc1c[nH]cn1` [Clobenpropit dihydrobromide], the “scaled lipid accumulation score” value under setting [1] is active: 1.53.

`CCCCC/C=C\C/C=C\C/C=C\C/C=C\CCCC(=O)N[C@@H](CO)C(=O)O` [N-Arachidonoyl-L-Serine]: the “scaled lipid accumulation score” value under setting [2] is inactive: ≤ 0.

As for `CC(=O)NCCc1c[nH]c2ccccc12` [N-Acetyltryptamine], the “scaled lipid accumulation score” value under setting [1] was inactive: 0.21 and inactive: 0.006.

In the case of `CC(C(=O)OC1CC2CCC(C1)N2C)c1ccc(Br)cc1.O=C(O)/C=C\C(=O)O` (stereo unspecified) [PG-9 maleate], the “scaled lipid accumulation score” value under setting [1] is active: 0.958.

For the compound `O=c1[nH]c2ccccc2n1C1CCN(CCCC(c2ccc(F)cc2)c2ccc(F)cc2)CC1` [Pimozide], the “scaled lipid accumulation score” value is inactive: 0.242. Further, under setting [1], the “scaled lipid accumulation score” value is inactive: 0.021.

With `CCCN1CC[C@@H]2c3cc(O)ccc3CC[C@@H]21` (racemic) [cis(+/-)-8-OH-PBZI hydrobromide], under setting [1], the “scaled lipid accumulation score” value is inactive: 0.069.

For the compound `O=C(O)/C=C/CO` [trans-4-Hydroxycrotonic acid], the “scaled lipid accumulation score” value under setting [1] was inactive: 0.003.

For `CC(=O)Nc1cc([As](=O)(O)O)ccc1O` [Acetarsol], the “scaled lipid accumulation score” value is inactive: ≤ 0 under setting [5] and inactive: ≤ 0 under setting [1].

With `C/C=C(\C)C(=O)O[C@H]1C[C@@H](OC(C)=O)[C@@]2(C(=O)OC)CO[C@H]3[C@@H](O)[C@@](C)([C@]45O[C@@]4(C)[C@H]4C[C@@H]5O[C@@H]5OC=C[C@@]54O)[C@H]4[C@]1(CO[C@]4(O)C(=O)OC)[C@@H]32` [Azadirachtin], the “scaled lipid accumulation score” value under setting [1] was inactive: ≤ -0.027.

Turning to `Cc1cc2c(C(C)C)c(O)c(O)c(C=O)c2c(O)c1-c1c(C)cc2c(C(C)C)c(O)c(O)c(C=O)c2c1O` [Gossypol], the “scaled lipid accumulation score” value is inactive: ≤ 0. Moreover, under setting [3], the “scaled lipid accumulation score” value was inactive: 0.016. The “scaled lipid accumulation score” value under setting [1] is inactive: 0.824 and inactive: 0.57.

With `Cc1cc2c(C(C)C)c(O)c(O)c(C=O)c2c(O)c1-c1c(C)cc2c(C(C)C)c(O)c(O)c(C=O)c2c1O`, the “scaled lipid accumulation score” value was inactive: ≤ 0 under setting [3] and inactive: 0.142 under setting [1].

In the case of `C=CCN1CC[C@]23CCCC[C@H]2[C@H]1Cc1ccc(O)cc13` [Levallorphan tartrate], the “scaled lipid accumulation score” value (library stock concentration: 7.1 mM) was inactive: 0.152 and the “scaled lipid accumulation score” value under setting [1] is inactive: 0.71.

`O=c1ccc2[nH]cc(C3=CCNCC3)c2[nH]1`: the “scaled lipid accumulation score” value under setting [1] is inactive: 0.084 and inactive: ≤ -0.006.

On to `CC[C@H]1CN2CC[C@H]1C[C@H]2[C@H](O)c1ccnc2ccc(OC)cc12` [Hydroquinine hydrobromide hydrate], for which the “scaled lipid accumulation score” value was inactive: ≤ 0.
